According to PubChem BioAssay AID624417 (National Center for Advancing Translational Sciences (NCATS), 2012):
Among all 410,000 compounds or so, about 6,400 (1.6%) were called active. Inconclusive means that the source gave no clear call. Such entries were picked first, then a sample of the others. The call rests on the fitted dose curve; in most records, active means well fitted inhibition curve with a large enough effect; inconclusive means small, poorly fitted or top-dose-only effect; inactive means no such curve, though single readings can be large or run the other way. Potencies of inconclusive entries are left out as doubtful fits.
Further: nearly all actives have a fitted effect of over 55% in size.
Potency means the concentration at half of the fitted maximal effect; tags describe the fitted curve by direction and shape.

What follows are compounds tested against Glucagon-like peptide 1 receptor (Homo sapiens) (UniProt P43220) (assay: qHTS of GLP-1 Receptor Inverse Agonists (Inhibition Mode)). Details: HEK293 GLP-1R CRE-luciferase, luminescence, 24 h, GLP-1R form is constitutively active; series mostly up to 38.3 µM.
Chain of UniProt P43220 (P43220 whole entry, looked up): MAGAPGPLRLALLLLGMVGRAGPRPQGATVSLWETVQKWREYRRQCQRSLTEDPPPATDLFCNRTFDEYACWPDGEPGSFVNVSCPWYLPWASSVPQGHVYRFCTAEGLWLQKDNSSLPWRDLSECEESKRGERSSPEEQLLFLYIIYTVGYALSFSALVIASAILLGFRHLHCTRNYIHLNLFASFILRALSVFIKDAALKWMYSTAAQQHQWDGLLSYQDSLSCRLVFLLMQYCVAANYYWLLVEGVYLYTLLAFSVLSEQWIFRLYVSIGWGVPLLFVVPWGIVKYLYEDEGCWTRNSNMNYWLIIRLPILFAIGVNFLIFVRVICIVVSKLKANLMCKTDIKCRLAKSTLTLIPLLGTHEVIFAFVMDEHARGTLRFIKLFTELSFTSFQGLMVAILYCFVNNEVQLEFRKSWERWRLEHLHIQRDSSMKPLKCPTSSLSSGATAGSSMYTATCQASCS
Procedure, shortened: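 HEK293 cells stably co-expressing constitutively active GLP-1R and a cAMP-responsive luciferase reporter were seeded in DMEM with 10% Nu serum, given compounds after 12 h, and incubated 24 h at 37 deg C. Luminescence was then read.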
With `COC(=O)c1ccc(CN2CCC(Oc3cccc(C(=O)N4CCOCC4)c3)CC2)cc1` the Potency was inconclusive [inhibitor, partial curve, poor fit]. In the case of `CC(=O)c1cc(C)c(OC(=O)c2ccccc2)c(C)c1`, the Potency is reported as inconclusive [inhibitor, single point]. `CC1CCCN(CCCNC(=O)c2ccc3c(c2)N(Cc2cccc(Cl)c2)C(=O)c2ccccc2S3(=O)=O)C1` (stereo not drawn) was tested, and the Potency was inconclusive [inhibitor, single point]. In the case of `CCCCNC(=O)c1cc(S(=O)(=O)N2CCCCC2)oc1C`, the Potency is reported as inconclusive [inhibitor, full curve, poor fit]. In the case of `CCOC(=O)C1CCCN(C(=O)COc2ccc(C(=O)c3ccc(F)cc3)cc2)C1` (stereo not drawn), the Potency is reported as inconclusive [inhibitor, single point]. With `Cc1ccc(OCC(=O)Nc2nonc2-c2ccc(C)c(C)c2)cc1C` the Potency was “inactive”. In the case of `CC1(C)CC(NC(=O)C23CCC(C)(C2Br)C3(C)C)CC(C)(C)N1` (stereo not drawn), the Potency is reported as inconclusive [inhibitor, single point]. With `O=C(COc1ccccc1)NC1CCSc2ccccc21` (stereo not drawn) the Potency was inconclusive [inhibitor, single point]. `COc1cccc(-n2sc3c(c2=S)-c2cc(OC)ccc2NC3(C)C)c1` was tested, and the Potency was inconclusive [inhibitor, full curve, poor fit]. With `Cc1cc(C)cc(Oc2nc3ccccn3c(=O)c2/C=C(\C#N)C(=O)NC2CCS(=O)(=O)C2)c1` (stereo not drawn) the Potency was inconclusive [inhibitor, single point]. With `CN(CC(=O)Nc1ccc(Cl)c(C(F)(F)F)c1)C(=O)C1(c2ccccc2)CC1` the Potency was inconclusive [inhibitor, partial curve, poor fit]. With `Cc1ccc(NC(=O)CN2C(=O)COc3ccc(S(=O)(=O)N4CCCCCC4)cc32)cc1Cl` the Potency was inconclusive [inhibitor, partial curve, poor fit]. `Nc1ccc(Oc2ccc3nc(-c4ccccc4)c(-c4ccc([N+](=O)[O-])cc4)nc3c2)cc1` was tested, and the Potency was inconclusive [inhibitor, partial curve, poor fit]. For `CC1S/C(=N\N=C\c2cccc([N+](=O)[O-])c2)N(C(C)(C)C)C1=O` (stereo not drawn), the Potency was active: 3.55 µM. For `Cc1cc(C2(c3ccc(O)c(C)c3)C(=O)Nc3ccccc32)ccc1O`, the Potency was inconclusive [inhibitor, full curve, poor fit]. In the case of `COc1cccc(N2CCN(C(=O)c3cc4c(s3)-c3c(C)cccc3OC4)CC2)c1`, the Potency is reported as inconclusive [inhibitor, single point]. `Cc1cc(C)cc(NC(=O)c2cccc(NC(=O)C3C4CC5OC(=O)C3C5C4)c2)c1` (stereo not drawn) was tested, and the Potency was inconclusive [inhibitor, single point]. For `Clc1ccccc1N1CCN(Cc2c[nH]c3ccccc23)CC1`, the Potency was inconclusive [inhibitor, partial curve, poor fit]. `S=C(NCCc1ccccc1)N1CCC2CC1c1c(Cl)cccc12` (stereo not drawn) was tested, and the Potency was inconclusive [inhibitor, single point]. `O=C(NN1C(=O)c2ccccc2C1=O)C1C2CCCCC21` (stereo not drawn) was tested, and the Potency was inconclusive [inhibitor, partial curve, poor fit]. For `Cc1ccccc1NC(=O)CNC(=O)Cc1cccc2ccccc12`, the Potency was inconclusive [inhibitor, partial curve, poor fit]. `Cc1ccc2c(c1)C1CN(C)CCC1N2C(=O)COc1ccc(N(C)C(=O)c2ccccc2)cc1` (stereo not drawn) was tested, and the Potency was inconclusive [inhibitor, partial curve, poor fit]. `CC(C)N(C(=O)Cn1cc(S(=O)(=O)CC(=O)NCc2ccc(F)cc2)c2ccccc21)C(C)C` was tested, and the Potency was inconclusive [inhibitor, single point]. With `O=C(NCCN1C(=O)S/C(=C\c2ccc(F)cc2)C1=O)c1cccc(S(=O)(=O)N2CCOCC2)c1` the Potency was inconclusive [inhibitor, partial curve, poor fit]. For `O=C(Cc1ccc([N+](=O)[O-])cc1)N1CCN=C1SCc1ccccc1`, the Potency was “inactive”. `CCOC(=O)c1c(NC(=O)COc2ncnc3sccc23)sc2c1CCC2` was tested, and the Potency was “inactive”. In the case of `CCc1ccc(C(=O)COC(=O)C(Cc2c[nH]c3ccccc23)NC(=O)c2ccc(CC)cc2)cc1` (stereo not drawn), the Potency is reported as inconclusive [inhibitor, single point]. In the case of `Cc1[nH]c2ccccc2c1C(=O)C(=O)N1CCN(c2cccc(Cl)c2)CC1`, the Potency is reported as inconclusive [inhibitor, partial curve, poor fit]. In the case of `O=C(Cc1ccccc1)Nc1c(C(=O)c2ccccc2)oc2ccccc12`, the Potency is reported as inconclusive [inhibitor, partial curve, poor fit]. With `COc1ccc(C(CCN(Cc2ccc(OC)c(OC)c2)C(C)=O)c2ccccc2)cc1` (stereo not drawn) the Potency was inconclusive [inhibitor, single point]. With `COc1ccc(CNC(=O)c2cc3cc4ccc(C)cc4nc3o2)cc1` the Potency was “inactive”. `Cc1ccccc1CC1(CO)CCCN(C(=O)c2cc(Cl)ccc2F)C1` (stereo not drawn) was tested, and the Potency was inconclusive [inhibitor, partial curve]. With `COc1cccc(CNC(=O)C2CCCN(S(=O)(=O)c3c(C)noc3/C=C/N(C)C)C2)c1` (stereo not drawn) the Potency was “inactive”. In the case of `Cc1ccc(-n2c(Cc3cccn3C)nnc2SCC(=O)N2CCN(c3ccccc3)CC2)cc1`, the Potency is reported as inconclusive [inhibitor, partial curve, poor fit]. `O=C(CNC(=O)Cc1ccccc1)NCC(=O)OCc1ccc(C(=O)c2ccccc2)cc1` was tested, and the Potency was “inactive”. For `CC(=O)NC(=S)Nc1ccc(NC(=O)COc2ccc(C(C)C)cc2)cc1`, the Potency was inconclusive [inhibitor, single point]. `CC(C)(C)C1CCc2onc(C(=O)NCc3ccc(F)cc3)c2C1` (stereo not drawn) was tested, and the Potency was inconclusive [inhibitor, partial curve, poor fit]. In the case of `CN(C)CCNC(=O)C1CCN(c2ncnc3c2nc2n3CCCCC2)CC1`, the Potency is reported as “inactive”.
